Experimental data as given in PubChem BioAssay AID1030 (National Center for Advancing Translational Sciences (NCATS), 2008).
Among all 220,000 compounds or so, about 16,000 (7.3%) were called active. Inconclusive means that the source gave no clear call. Such entries were picked first, then a sample of the others. The call rests on the fitted dose curve; in most records, active means well fitted inhibition curve with a large enough effect (not every such curve was filed as active); inconclusive means small, poorly fitted or top-dose-only effect, or another doubt; inactive means no such curve, though single readings can be large or run the other way. Potencies of inconclusive entries are left out as doubtful fits.
Potency means the concentration at half of the fitted maximal effect; tags describe the fitted curve by direction and shape.
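Wherever activity, negative = inhibition is given: plate controls were no enzyme wells and a reference inhibitor.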

What follows are compounds tested against Aldehyde dehydrogenase 1A1 (Homo sapiens) (UniProt P00352) (assay: qHTS Assay for Inhibitors of Aldehyde Dehydrogenase 1 (ALDH1A1)). Settings: Purified ALDH1A1, NADH fluorescence, propionaldehyde substrate; series mostly up to 75.3 µM; activity, negative = inhibition: at the top concentration.
Sequence of UniProt P00352 (P00352 whole entry, looked up): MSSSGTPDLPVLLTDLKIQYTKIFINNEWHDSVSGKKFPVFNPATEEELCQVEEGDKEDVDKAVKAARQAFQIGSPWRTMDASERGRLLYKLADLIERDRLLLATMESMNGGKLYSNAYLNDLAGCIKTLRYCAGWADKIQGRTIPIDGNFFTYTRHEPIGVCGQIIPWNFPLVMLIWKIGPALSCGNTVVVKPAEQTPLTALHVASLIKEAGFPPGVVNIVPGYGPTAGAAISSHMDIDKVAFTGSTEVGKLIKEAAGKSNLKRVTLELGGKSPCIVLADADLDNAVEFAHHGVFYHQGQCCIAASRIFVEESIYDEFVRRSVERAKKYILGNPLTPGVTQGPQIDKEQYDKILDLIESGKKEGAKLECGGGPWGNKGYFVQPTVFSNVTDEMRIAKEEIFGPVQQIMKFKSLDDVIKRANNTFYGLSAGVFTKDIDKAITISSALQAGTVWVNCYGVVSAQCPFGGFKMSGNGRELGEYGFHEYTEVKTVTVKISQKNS
For `COc1cccc2c1[C@@H]1CN(CCCCn3c(=O)[nH]c4c(sc5ncc(-c6ccccc6)nc54)c3=O)C[C@@H]1CO2`, the “activity, negative = inhibition” value was inactive: -3.21%.
With `C=CCC(Nc1ccc(OC)cc1)C(=O)OCC` (stereo unspecified) the “activity, negative = inhibition” value was inactive: 5.92%.
`CC(C)(C)NC(=S)NC(=O)C12CC3CCC(CC(C3)C1)C2` was tested, and the Potency was inconclusive [inhibitor, single point].
`Cc1ccc(-c2csc(NC(=O)/C=C/c3ccco3)c2C(=O)O)cc1` was tested, and the Potency was inconclusive [inhibitor, single point].
`O=C(c1cc2nc(-c3ccco3)cc(C(F)(F)F)n2n1)N1CCN(Cc2ccccc2)CC1` was tested, and the Potency was inconclusive [inhibitor, full curve].
`O=C(COc1ccccc1O)c1cccs1` was tested, and the “activity, negative = inhibition” value was inactive: 14.7%.
In the case of `O=C(Nc1ccccc1)c1ccccc1OCc1cccc([N+](=O)[O-])c1`, the Potency is reported as inconclusive [inhibitor, partial curve].
`Cc1ccc(OCC(=O)NC(=S)Nc2ccc3c4c(cccc24)CC3)cc1` was tested, and the Potency was active: 10 µM.
For `O=[N+]([O-])c1ccc(CSc2nnc(SCc3ccccc3)s2)cc1`, the Potency was inconclusive [inhibitor, partial curve].
With `CC1(CCc2ccccc2)NC(=S)N(c2ccc(Cl)cc2)N1` (stereo unspecified) the Potency was active: 7.08 µM.
`COc1c(S(=O)(=O)NCCN2CCOCC2)ccc(Cl)c1Cl` was tested, and the Potency was inconclusive [inhibitor, partial curve].
For `O=c1c2ccccc2nc(/C=C/c2ccc(O)cc2)n1CCc1ccccc1`, the Potency was inconclusive [inhibitor, single point].
In the case of `O=C1CC(C(=O)Nc2cccc(F)c2)n2ncnc2N1` (stereo unspecified), the “activity, negative = inhibition” value is reported as inactive: -7.01%.
`CCOc1ccc(C2C(C#N)=C(N)Oc3cc(C)n(Cc4ccco4)c(=O)c32)cc1OC` (stereo unspecified) was tested, and the Potency was inconclusive [inhibitor, partial curve].
`CCCNC(=O)c1csc2c1CCCCC2` was tested, and the “activity, negative = inhibition” value was inactive: 5.89%.
`CCO/C=C1/C(=O)N(CC)c2ccccc21` was tested, and the Potency was inconclusive [inhibitor, partial curve].
`COc1ccc(-c2nc3nc(N)nn3cc2C)cc1F` was tested, and the Potency was inconclusive [inhibitor, partial curve].
For `COc1cccc(/C=N/c2oc(-c3ccccc3)cc2C#N)c1O`, the Potency was inconclusive [inhibitor, partial curve].
`O=C(CCNS(=O)(=O)c1cccc2nonc12)NC1CCCCC1` was tested, and the Potency was inconclusive [inhibitor, single point].
In the case of `O=C1C=C(NCc2ccc(Cl)cc2)CC(c2ccco2)C1` (stereo unspecified), the “activity, negative = inhibition” value is reported as inactive: -7.48%.
With `CCOc1cc(C(C#N)N2CCOCC2)ccc1OC` (stereo unspecified) the Potency was inconclusive [inhibitor, partial curve].
`COc1ccc(CCNC(=O)/C=C/C(=O)O)cc1` was tested, and the Potency was inconclusive [inhibitor, single point].
`O=C(/C=C/c1ccc(O)c(O)c1)O[C@H]1C[C@@](O)(C(=O)O)CC(O)C1O` (stereo partly specified) was tested, and the “activity, negative = inhibition” value was inactive: -1.73%.
With `CCCOC(=O)c1ccc2c(c1)C(=O)N(c1ccccc1)C2=O` the Potency was inconclusive [inhibitor, full curve].
With `O=C(CN(Cc1ccccc1)S(=O)(=O)c1ccc2c(c1)OCCO2)Nc1ccc2c(c1)OCCO2` the Potency was inconclusive [inhibitor, partial curve].
For `COc1cc(OC)c(S(=O)(=O)Nc2ccc(C(=O)N3CCCC3)cc2)cc1NC(C)=O`, the “activity, negative = inhibition” value was inactive: -1.32%.
`CN(CC(=O)Nc1ccc(S(=O)(=O)N2CCCC2)cc1)Cc1cccc(Cl)c1Cl` was tested, and the Potency was inconclusive [inhibitor, single point].
`Cc1ccc(S(=O)(=O)c2nc(NCCN(C)C)sc2Cl)cc1` was tested, and the “activity, negative = inhibition” value was inactive: -1.57%.
`COc1cc(/C=N/NC(=O)c2ccccn2)cc2c1OCO2` was tested, and the “activity, negative = inhibition” value was inactive: -12.9%.
For `CCn1ncc(C2C(C(=O)Nc3ccc(C)cn3)=C(C)NC3=C2C(=O)CCC3)c1C` (stereo unspecified), the Potency was inconclusive [inhibitor, partial curve].
`N#Cc1ccc(CN2CCCC3(CCN(C(=O)c4cc(C(F)(F)F)cc(C(F)(F)F)c4)CC3)C2)cc1` was tested, and the “activity, negative = inhibition” value was inactive: 1.53%.
For `O=C(CSc1nc2ccccc2n1S(=O)(=O)c1cccc([N+](=O)[O-])c1)NCCc1ccccc1`, the “activity, negative = inhibition” value was inactive: 5.82%.
With `C/C(CCc1oc2ccc(Cl)cc2c1-c1ccc(C)o1)=N\O` the Potency was active: 4.47 µM.
For `Cc1cc(C(=O)CN2C(=O)NC3(CCCCC3)C2=O)c(C)n1Cc1ccc2c(c1)OCO2`, the “activity, negative = inhibition” value was inactive: -12.9%.
In the case of `Cc1[nH]c2ccccc2c1C(O)CN1CCN(c2cccc(C(F)(F)F)c2)CC1` (stereo unspecified), the Potency is reported as inconclusive [inhibitor, partial curve].
`O=C(N/N=C/c1ccc2c(c1)OCO2)c1cccs1` was tested, and the “activity, negative = inhibition” value was inactive: 1.6%.
`O=C(N/N=C/c1ccncc1)c1cccc(NC(=O)c2ccc(Cl)cc2)c1` was tested, and the “activity, negative = inhibition” value was inactive: -4.29%.
With `Cc1[nH]c2ccccc2c1C(C[N+](=O)[O-])c1cccs1` (stereo unspecified) the “activity, negative = inhibition” value was inactive: 3.6%.
In the case of `CC(=O)OCN(C#N)c1nc(N(C)C)nc(N(C)C)n1`, the Potency is reported as inconclusive [inhibitor, single point].
`CCN1/C(=C/C(=O)c2ccco2)Sc2ccccc21` was tested, and the Potency was active: 25.1 µM.
In the case of `Cc1cc(OCCn2ccnc2)cc(C(C)C)c1`, the Potency is reported as inconclusive [inhibitor, single point].
In the case of `CCCCc1cc(=O)oc2cc(C)cc(OCc3nn[nH]n3)c12`, the Potency is reported as inconclusive [inhibitor, partial curve].
With `CCOC(=O)CCSc1cc(C)c2ccccc2n1` the “activity, negative = inhibition” value was inactive: -0.889%.
`c1ccc(-c2oc3ncnc(NCCN4CCOCC4)c3c2-c2ccccc2)cc1` was tested, and the Potency was inconclusive [inhibitor, partial curve].
In the case of `C=C1CCC[C@]2(C)C[C@H]3OC(=O)[C@H](CNCCc4ccccc4OC)C3CC12` (stereo partly specified), the Potency is reported as active: 8.91 µM.
With `Cc1ccn2c(C(=O)NN=C3CCCCCCC3)c(C)nc2c1` the Potency was inconclusive [inhibitor, single point].
In the case of `O=C(COC(=O)Cc1c(Cl)cccc1Cl)NCCC1=CCCCC1`, the “activity, negative = inhibition” value is reported as inactive: -6.2%.
With `Cc1ccc2cccc(NC3OC(=O)c4ccccc43)c2n1` (stereo unspecified) the “activity, negative = inhibition” value was inactive: 3.88%.
In the case of `O=C(NCc1cccs1)C1CCC(CNS(=O)(=O)c2ccccc2)CC1` (stereo unspecified), the Potency is reported as active: 5.01 µM.
For `CCOC(=O)C1CCN(C(=O)c2cc3c(=O)n4ccccc4nc3n2C)CC1`, the Potency was inconclusive [inhibitor, partial curve].
`CC(C)CCn1c(CN(C)Cc2ccccc2)nc2c1c(=O)n(C)c(=O)n2C` was tested, and the Potency was inconclusive [inhibitor, partial curve].
`C=CCOc1ccc(C2NC(=S)NC(c3ccccc3)=C2C(C)=O)cc1OC` (stereo unspecified) was tested, and the Potency was inconclusive [inhibitor, partial curve].
For `Cc1ccc([N+](=O)[O-])cc1-c1ccc(/C=C(\C#N)c2[nH]nc(N)c2C#N)o1`, the “activity, negative = inhibition” value was inactive: -7.22%.
For `O=C(Nc1ccccc1Cl)c1ccccc1Cc1ccccc1`, the “activity, negative = inhibition” value was inactive: 1.87%.
`CC(=O)Nc1ccc(NC(=O)CCn2nnc3ccccc32)cc1` was tested, and the Potency was inconclusive [inhibitor, partial curve].
`COc1ccc(/C=C2\SC(=O)N=C2N)cc1OC` was tested, and the “activity, negative = inhibition” value was inactive: 7.85%.
For `O=C(CCCOc1ccc(Cl)cc1Cl)N1CCc2ccccc2C1`, the “activity, negative = inhibition” value was inactive: -2.15%.
With `O=C(Nc1ccc(-c2nc3ccccc3[nH]2)cc1)C1CCCO1` (stereo unspecified) the Potency was inconclusive [inhibitor, single point].
With `C/C(=N\NC(=O)c1ccc(O)cc1)c1ccc2c(c1)Nc1ccccc1S2` the “activity, negative = inhibition” value was inactive: -5.32%.
`O=C(Nc1ccc2c(c1)nc1n2CCN(C2CCCCC2)C1)NC1CCCCC1` was tested, and the Potency was inconclusive [inhibitor, partial curve].
With `CCC(=O)N1CCc2cc(S(=O)(=O)NC(Cc3ccccc3)C(=O)NC3CCCC3)ccc21` (stereo unspecified) the Potency was inconclusive [inhibitor, single point].
For `CCCCn1nnnc1SCC(=O)NCc1ccco1`, the “activity, negative = inhibition” value was inactive: -6.36%.
`OCC12COC(c3ccccc3)N1C(c1ccccc1)OC2` (stereo unspecified) was tested, and the Potency was inconclusive [inhibitor, partial curve].
With `Cc1cc2cc(C)c3nnc(SCC(=O)Nc4ccc(S(=O)(=O)N5CCCCC5)cc4)n3c2cc1C` the Potency was inconclusive [inhibitor, single point].
`CC(C)Oc1ccc(/C(O)=C2/C(=O)C(=O)N(CCN3CCOCC3)C2c2ccccc2)cc1` (stereo unspecified) was tested, and the Potency was active: 22.4 µM.
In the case of `O=C(COC(=O)CC(c1ccccc1)c1ccccc1)NCc1ccc(Cl)cc1`, the Potency is reported as inconclusive [inhibitor, single point].
In the case of `COC(=O)c1c(SCC(=O)Nc2ccc(C)cc2)nc(=O)[nH]c1C`, the Potency is reported as inconclusive [inhibitor, single point].
`O/N=C/c1ccc(OCc2ccccc2)c(Br)c1` was tested, and the “activity, negative = inhibition” value was inactive: 5.88%.
For `CC(=O)c1c(N2CCN(c3ccc(F)cc3)CC2)nc(=S)n(Cc2ccccc2)c1C`, the “activity, negative = inhibition” value was inactive: -11.9%.
For `O=C(OC(c1ccccc1)c1nccc2ccccc12)c1cc([N+](=O)[O-])cc([N+](=O)[O-])c1` (stereo unspecified), the “activity, negative = inhibition” value was inactive: -11.2%.
For `O=CN1CCN(C(=O)c2ccc(-c3nc4ccccc4s3)s2)CC1`, the Potency was inconclusive [inhibitor, partial curve].
`Cc1ccc(-c2nnc(OCCN3CCOCC3)c3ccccc23)cc1` was tested, and the Potency was inconclusive [inhibitor, single point].
In the case of `CCc1c2c(nc3c(C(C)C)cccc13)-c1cccc(=O)n1C2`, the Potency is reported as inconclusive [inhibitor, partial curve].
With `OC(c1ccccc1)(c1ccccc1)C1CCN(C(=S)NC2CCCC2)CC1` the Potency was inconclusive [inhibitor, single point].
With `O=C(CC1Oc2ccc(Cl)cc2NC1=O)NC1CCCCCC1` (stereo unspecified) the “activity, negative = inhibition” value was inactive: 1.58%.
In the case of `Cc1ccc(NC(=O)Cn2nnc(-c3ccccc3-n3cnnn3)n2)c(C)c1`, the “activity, negative = inhibition” value is reported as inactive: -4.64%.
